# Results from the supplement of paper PMC11417369.
# This is one part of the list.
# Test system: PfSIP2 AP2 domain 1 (GST-tagged)
# Assay: gcPBM binding intensity (ln(normalized median fluorescence intensity)); higher = stronger DNA binding
# Outline: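 For binding intensity, the highest Masliner-normalised natural-log median intensity across replicate spots of either probe orientation was taken. Protein bound to the array was stained with Alexa488 anti-GST antibody and scanned at 488 nm. The protein, GST-tagged P. falciparum DNA-binding domains from E. coli at about 25 μg on average, had been applied for 1 h to an Agilent 4 × 180k array of primer-extended double-stranded 36-bp intergenic genomic probes and negative controls.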
row,Sequence,gcPBM binding intensity (ln)
1,TATATTGATGATGATAGTACGTATGAATACAAAAAA [XGTACX_site4],6.83
2,AAGAGTAAAATATGGTTGCACTAAAAATATATATTT [GTGCAC_site9484],7.78
3,TTATAGAGCTTATTCACACATACATATGTATTTATA [CACACA_site5775],7.04
4,ATAATAAAAATATACTGTACATTTGTAAATTCTTTT [XGTACX_site4655],6.81
5,TAAAACATATAAAGGTGTACGCCTTTTTGTATCAAT [XGTACX_site6064],7.13
6,TATATTTGTTGACACACACACAAAAAAAAAAAAAAA [CACACA_site7211],7.13
7,GTCTACTACACTAAATGTACAAGAAAAAAGAAAAAA [XGTACX_site4660],7.49
8,TATAAAATTCTGACTTGTACATGTGAAAAATAATTA [XGTACX_site1396],6.9
9,TATATATATATATAATGTACACATTTTTATAACTAT [XGTACX_site5714],9.18
10,AAAGATGGAAAAAAAAATTTGTGTGTTGAAAGATAT [GTGCAC_negctrl_site19],7.14
11,AAAATACAATTTCTAGCACACAAAATATTATTATAA [CACACA_site9056],6.82
12,GCGTTGTTTTTAAAAAGTACATTTTTATATAAGTTA [XGTACX_site8780],7.29
13,CTTAATATATGTGGCACACATGTGGAGTCCTATTAA [CACACA_site4281],6.98
14,AAAAAAATATTAATGTGTACATAATAATAACATATA [XGTACX_site8319],7.04
15,GCCAAAAGGATATGCACACACACACCCATATATATA [CACACA_site2198],7.62
16,CAAGGAACCGGACACACACACATAAATGTATTTATA [CACACA_site4574],6.78
17,CATTATCATGTTTTTTGTACTCATAATAAAAAGCAG [XGTACX_site2056],7.35
18,ATTTACAAAAGGAAAGTGCAAACATGTGATTAAACA [CACACA_negctrl_site714],7.97
19,TATATATAGAAACACACACACACCAAAGCGTAGCGC [CACACA_site62],6.77
20,AATAATTGTTAAAGTTGTACTATACGTATATAAGAA [XGTACX_site1432],7.04
21,AAAAATGAATTATTTTGTACATATATATATATATAT [XGTACX_site3410],9.18
22,AACTTATTTAAATTCACACATATATAAAATACTTAT [CACACA_site4394],7.25
23,ATCAATTTAATTTATTGTACTTGTTTGTTTTTTTAT [XGTACX_site7544],6.94

row,Sequence,gcPBM binding intensity (ln)
1,GATAACATAATATGTTGTACATAAAAATTTTTATCA [XGTACX_site1969],7.03
2,ATAAAGATATGACACACACACATATTATAGATATAT [CACACA_site7434],7.08
3,ACATATGACTATAATACACACTTGTATTATTAATAT [CACACA_site6951],6.88
4,ATTTTAATTACATATACACACAAAGGTTCATAACAA [CACACA_site9008],7.14
5,TAATTTAAACAAAAAAGTACAAATTTCTTTTTATTA [XGTACX_site5244],6.38
6,TACTCATAATATTGATAATTAAAAAGATAAACTATT [XGTACX_negctrl_site299],6.9
7,ATTATTTTATTATAGTGTACTTTTTTAATCAAAGGA [XGTACX_site8921],7.27
8,AATTTTATTACTTTTACACACCTATATATTATTCAT [CACACA_site3273],7.04
9,TTTTAAAAAAAATATAAAAAAAGAGGAGGGATGGTA [GTGCAC_negctrl_site35],7.25
10,TATGTTTTTACGTGTGTGCACTTTGTAGAGATAAGT,10.7
11,TACTATATAAGTAAGGCATGCATGCCGATTTTTTTA [TGCATGCA_site100],6.57
12,TTCTTTAATACTTATTGTACAATATAATAATCACAA [XGTACX_site6364],7.48
13,AAAAAAAAAAAAATATGTACTTATTTTTATGTTAAA [XGTACX_site8802],7.3
14,TACTTAAAATATTTAACAAATAAATAAATAAATAAA [XGTACX_negctrl_site523],7.08
15,TGAAACCGTTACATGTGTACATATGTTACACATAAT [XGTACX_site7250],6.94
16,ATATTTTTATTTTCTTTACACACCACATAATTTTTT [CACACA_site4060],7.09
17,ATTAGATATGTAAACTAAAATTATATTCATGATAAT [TGCATGCA_negctrl_site182],7.02
18,TCTAACAACATGCGCACACACATGAATATTCATATT [CACACA_site1540],8.67
19,TCACATCTTATATACTGTACATTTCGAATATAAATT [XGTACX_site2508],7.04
20,TTTCTTTTACATATTTGTACATATATAAATTTATAT [XGTACX_site1787],7.21
21,CATACATACCTATATACACACATATAAAATAATATA [CACACA_site7290],7.27
22,AGTATACAGATATATACACACATATTTATATTTATA [CACACA_site6394],6.83
23,GGCAACATTTGAAACACACACACATACAAACAAACA [CACACA_site3307],7.57

row,Sequence,gcPBM binding intensity (ln)
1,TGTTATTATTTGTACACACACATATATATCCTTGTT [CACACA_site3616],7.19
2,TCTATATGTTGATTCACACATAAAGAATAAATAAAA [CACACA_site6017],6.83
3,AACACGCGCAGACACACACACACACCCACATATATA [CACACA_site2205],7.32
4,TATAATATATTATATACACACATTATGAAATCCACA [CACACA_site1330],7.18
5,TATATGAACTTATATACACACCATTTTTGTAAATCT [CACACA_site4547],6.88
6,ATAAATATATTTTATAGTACATAAATATCAAAAAAA [XGTACX_site2334],7.03
7,AAACAATACTGATATTGTACATAATAAAAAAAAATA [XGTACX_site3330],6.87
8,ATTTTGATGCATGGGTTGCACTAACTTTTGCCCAGA,9.11
9,TTTTTTTTTTTTGATGCACACACCTGAACGAGTTAA [CACACA_site317],7.86
10,TATTTTTATATATGACGTACTCTACAATTATTAATG [XGTACX_site5818],7.32
11,AAAATATGTATGTAAAGTACTAATATACAAATTTTT [XGTACX_site5186],6.73
12,ATATAAATATTCCACACACACACAAAAAAAAAAAAA [CACACA_site7678],7.07
13,TTAATTATAAGAAAAAGTACTCATTACATTATAGAA [XGTACX_site678],6.96
14,TAGTCGTTTTTTTAATGTACTCACGCATAATATAAT [XGTACX_site6499],7.28
15,GTTCAAAATATGAACACACACATATAGATTTATATA [CACACA_site7054],6.9
16,ATCATTTTTAAAGGAACACACAAAAAAAATTAGAAT [CACACA_site1370],6.93
17,AAAGGATATAGACACACACACACATATATATATATA [CACACA_site2200],9.61
18,TGAAAAGTAAAATACACACACATAATATAATTTATA [CACACA_site1989],6.77
19,CATATACATCCACATACACACATACACCCATACACA [CACACA_site5038],7.38
20,ATTATTTTTTTTGTTACACACATGACTTATTTTTAT [CACACA_site3228],7.32
21,ATATTTTTTTTTTTATGTACTTATTTATAATTATTT [XGTACX_site5279],7.19
22,AGCTTGTAACAGTTTACACACTAATATTTATAAATT [CACACA_site6024],6.87
23,CTTATAAGAATACTAGTGCACATAATTTAACGAAAA,10.6

row,Sequence,gcPBM binding intensity (ln)
1,TACTTATTGTGATACTTATATTATTTTATGATTAAA [XGTACX_negctrl_site353],6.93
2,TATATTTATTTATATACACACATAATAAAAAATATA [CACACA_site6527],7.01
3,TATTAATGATAAAAAAGTACATTATTATATGATATT [XGTACX_site4235],6.84
4,TTTTTTTTTTTTTTTTCACACATTGTACTTTTTTAT [CACACA_site5193],7.41
5,TAAGTCATATAAATGTGTACATAAAAAAAAAAAATG [XGTACX_site1645],7.05
6,ATCATTTGCATACGCACACACACATAAAAAGAAAAA [CACACA_site355],7.54
7,TCTATCAAATTTGAAGGTACACATTTGAGATAATTA [XGTACX_site3797],6.86
8,AATAATAAATAAATGTGTACTTAAAAATATTATATT [XGTACX_site3005],7.15
9,TTGTATCATATATTATGTACATATTGATTTATTACC [XGTACX_site12],7.24
10,CAAAGTATTATGATTACACACATGTGCTTTTTTCTT [CACACA_site163],6.71
11,ATGTCCTATATTAGTACACACATGAAAATATAAATA [CACACA_site7497],7.27
12,TCCTATGATGATGATAGTACATATGAGTTCAAAAAA [XGTACX_site273],6.81
13,ACAATTAATCAAACAAGTACAAAATATATCCCTATT [XGTACX_site6223],7.03
14,TTATTGTTATTTGTTTGTACATAATATAATATATTA [XGTACX_site6477],7.03
15,AACCATACACAAATAAACATAGACACAGATACCTCC [CACACA_negctrl_site598],6.95
16,AATATAAAAAAAAACAAAAAAAAAATTTTGGTTCAC [CACACA_negctrl_site1290],6.83
17,AATATGTGTATAGATAGTACACATGCTGATAATATA [XGTACX_site5941],7.04
18,AAAATTTTGGAACGTGCACACATATGTAATATATAT [CACACA_site9004],9.92
19,TTTTTAAAATATTTAACACACAATTATAATGCATAA [CACACA_site3932],7.23
20,AGTAGTCTGGAGAAATGTACACAGTATCTGGTAGCT [XGTACX_site4871],6.85
